Laboratory results taken from the supplement of paper PMC11055344.

Legend:
penicillin G = compound: CC1(C)S[C@@H]2[C@H](NC(=O)Cc3ccccc3)C(=O)N2[C@H]1C(=O)O [penicillin G]; experiment: Broth microdilution.
amoxicillin = compound: CC1(C)S[C@@H]2[C@H](NC(=O)[C@H](N)c3ccc(O)cc3)C(=O)N2[C@H]1C(=O)O [amoxicillin]; experiment: Broth microdilution.

Test System	MIC (penicillin G) [mg/L]	MIC (amoxicillin) [mg/L]
Streptococcus pneumoniae isolate 165 (PBP alleles 1a 2b 2x: 7_1_1, serotype: 23B1)	0.25	0.06
Streptococcus pneumoniae isolate 166 (PBP alleles 1a 2b 2x: 0_0_0, serotype: 19A)	0.03	≤ 0.01
Streptococcus pneumoniae isolate 167 (PBP alleles 1a 2b 2x: 2_6_0, serotype: 11A)	≤ 0.01	≤ 0.01
Streptococcus pneumoniae isolate 168 (PBP alleles 1a 2b 2x: 86_82_162, serotype: Non-typeable/NCC2a)	≤ 0.01	≤ 0.01
Streptococcus pneumoniae isolate 169 (PBP alleles 1a 2b 2x: 2_0_2, serotype: 21)	0.03	0.03
Streptococcus pneumoniae isolate 170 (PBP alleles 1a 2b 2x: 0_0_2, serotype: 21)	≤ 0.01	≤ 0.01
Streptococcus pneumoniae isolate 171 (PBP alleles 1a 2b 2x: 23_27_77, serotype: 12F)	0.125	0.125
Streptococcus pneumoniae isolate 172 (PBP alleles 1a 2b 2x: 2_3_2, serotype: 3)	0.03	0.03
Streptococcus pneumoniae isolate 173 (PBP alleles 1a 2b 2x: 0_6_2, serotype: 16F)	0.03	0.03
Streptococcus pneumoniae isolate 174 (PBP alleles 1a 2b 2x: 2_0_6, serotype: 23A)	0.03	≤ 0.01
Streptococcus pneumoniae isolate 175 (PBP alleles 1a 2b 2x: 0_0_2, serotype: 35B)	0.03	≤ 0.01
Streptococcus pneumoniae isolate 176 (PBP alleles 1a 2b 2x: 7_1_1, serotype: 23B1)	0.25	0.06
Streptococcus pneumoniae isolate 177 (PBP alleles 1a 2b 2x: 0_0_2, serotype: 35B)	0.03	0.03
Streptococcus pneumoniae isolate 178 (PBP alleles 1a 2b 2x: 25_69_56, serotype: Non-typeable/NCC2b)	1	1
Streptococcus pneumoniae isolate 179 (PBP alleles 1a 2b 2x: 0_New_3, serotype: 35F)	≤ 0.01	≤ 0.01
Streptococcus pneumoniae isolate 180 (PBP alleles 1a 2b 2x: 0_0_0, serotype: 35B)	0.03	≤ 0.01
Streptococcus pneumoniae isolate 181 (PBP alleles 1a 2b 2x: 0_0_3, serotype: 15A)	≤ 0.01	≤ 0.01
Streptococcus pneumoniae isolate 182 (PBP alleles 1a 2b 2x: New_New_New, serotype: 15F)	0.25	0.125
Streptococcus pneumoniae isolate 183 (PBP alleles 1a 2b 2x: 0_0_2, serotype: 10A)	0.03	0.03
Streptococcus pneumoniae isolate 184 (PBP alleles 1a 2b 2x: 0_0_New, serotype: 35B)	0.06	0.06

Test System	MIC (penicillin G) [mg/L]	MIC (amoxicillin) [mg/L]
Streptococcus pneumoniae isolate 185 (PBP alleles 1a 2b 2x: 0_0_2, serotype: 35B)	0.03	≤ 0.01
Streptococcus pneumoniae isolate 186 (PBP alleles 1a 2b 2x: 0_6_2, serotype: 16F)	0.03	0.03
Streptococcus pneumoniae isolate 187 (PBP alleles 1a 2b 2x: 67_27_35, serotype: 15A)	0.25	0.25
Streptococcus pneumoniae isolate 188 (PBP alleles 1a 2b 2x: 11_0_0, serotype: 17F)	0.03	≤ 0.01
Streptococcus pneumoniae isolate 189 (PBP alleles 1a 2b 2x: 24_27_New, serotype: 15A)	0.125	0.125
Streptococcus pneumoniae isolate 190 (PBP alleles 1a 2b 2x: 7_1_171, serotype: 23B1)	0.25	0.125
Streptococcus pneumoniae isolate 191 (PBP alleles 1a 2b 2x: 0_0_3, serotype: 35F)	0.03	≤ 0.01
Streptococcus pneumoniae isolate 192 (PBP alleles 1a 2b 2x: 0_1_1, serotype: 23B1)	0.125	0.06
Streptococcus pneumoniae isolate 193 (PBP alleles 1a 2b 2x: 0_0_3, serotype: 35F)	0.03	≤ 0.01
Streptococcus pneumoniae isolate 194 (PBP alleles 1a 2b 2x: 2_0_3, serotype: 7C)	≤ 0.01	≤ 0.01
Streptococcus pneumoniae isolate 195 (PBP alleles 1a 2b 2x: 2_0_2, serotype: 15B/C)	0.03	0.03
Streptococcus pneumoniae isolate 196 (PBP alleles 1a 2b 2x: 1_0_0, serotype: 15A)	≤ 0.01	≤ 0.01
Streptococcus pneumoniae isolate 197 (PBP alleles 1a 2b 2x: 16_13_19, serotype: 19A)	0.125	0.125
Streptococcus pneumoniae isolate 198 (PBP alleles 1a 2b 2x: 7_1_1, serotype: 23B1)	0.125	0.125
Streptococcus pneumoniae isolate 199 (PBP alleles 1a 2b 2x: 23_6_139, serotype: 19F)	0.06	0.03
Streptococcus pneumoniae isolate 200 (PBP alleles 1a 2b 2x: 0_0_2, serotype: 10A)	0.03	≤ 0.01
Streptococcus pneumoniae isolate 201 (PBP alleles 1a 2b 2x: 11_0_0, serotype: 17F)	0.03	≤ 0.01
Streptococcus pneumoniae isolate 202 (PBP alleles 1a 2b 2x: 1_0_0, serotype: 9N)	≤ 0.01	≤ 0.01
Streptococcus pneumoniae isolate 203 (PBP alleles 1a 2b 2x: 0_0_3, serotype: 35F)	≤ 0.01	≤ 0.01
Streptococcus pneumoniae isolate 204 (PBP alleles 1a 2b 2x: 24_27_28, serotype: 15A)	0.25	0.03

Test System	MIC (penicillin G) [mg/L]	MIC (amoxicillin) [mg/L]
Streptococcus pneumoniae isolate 205 (PBP alleles 1a 2b 2x: 2_3_2, serotype: 3)	≤ 0.01	≤ 0.01
Streptococcus pneumoniae isolate 206 (PBP alleles 1a 2b 2x: 23_4_77, serotype: 12F)	0.06	0.03
Streptococcus pneumoniae isolate 207 (PBP alleles 1a 2b 2x: 2_0_2, serotype: 15B/C)	0.03	≤ 0.01
Streptococcus pneumoniae isolate 208 (PBP alleles 1a 2b 2x: 1_0_0, serotype: 15A)	0.03	0.03
Streptococcus pneumoniae isolate 209 (PBP alleles 1a 2b 2x: 0_0_2, serotype: 10A)	0.03	≤ 0.01
Streptococcus pneumoniae isolate 210 (PBP alleles 1a 2b 2x: 0_0_0, serotype: 35B)	0.03	≤ 0.01
Streptococcus pneumoniae isolate 211 (PBP alleles 1a 2b 2x: 2_6_0, serotype: 11A)	0.03	≤ 0.01
Streptococcus pneumoniae isolate 212 (PBP alleles 1a 2b 2x: 2_0_6, serotype: 33F)	0.03	0.03
Streptococcus pneumoniae isolate 213 (PBP alleles 1a 2b 2x: 2_0_2, serotype: 15B/C)	0.03	≤ 0.01
Streptococcus pneumoniae isolate 214 (PBP alleles 1a 2b 2x: 1_0_2, serotype: 21)	≤ 0.01	≤ 0.01
Streptococcus pneumoniae isolate 215 (PBP alleles 1a 2b 2x: 24_27_28, serotype: 15A)	0.25	0.03
Streptococcus pneumoniae isolate 216 (PBP alleles 1a 2b 2x: 1_0_0, serotype: 15B/C)	≤ 0.01	≤ 0.01
Streptococcus pneumoniae isolate 217 (PBP alleles 1a 2b 2x: 0_6_2, serotype: 16F)	0.03	≤ 0.01
Streptococcus pneumoniae isolate 218 (PBP alleles 1a 2b 2x: 2_0_2, serotype: 15B/C)	≤ 0.01	≤ 0.01
Streptococcus pneumoniae isolate 219 (PBP alleles 1a 2b 2x: 2_6_0, serotype: 11A)	≤ 0.01	≤ 0.01
Streptococcus pneumoniae isolate 220 (PBP alleles 1a 2b 2x: 11_0_0, serotype: 13)	0.03	≤ 0.01
Streptococcus pneumoniae isolate 221 (PBP alleles 1a 2b 2x: 23_27_77, serotype: 12F)	0.125	0.125
Streptococcus pneumoniae isolate 222 (PBP alleles 1a 2b 2x: 23_0_0, serotype: 9N)	0.03	≤ 0.01

MIC of nasopharyngeal S. pneumoniae isolates by broth microdilution (range and time not stated); higher = less susceptible. No active / inactive call per row; the paper counts penicillin above 0.06 and amoxicillin above 0.5 mg/L as non-susceptible (EUCAST). The lowest value, 0.01, is taken as the floor ('<='); the source prints it plain. Penicillin G is assumed for 'penicillin'. Isolates are numbered anew. PBP alleles are the type numbers of penicillin-binding proteins 1a, 2b and 2x; equal numbers mean equal sequences.
